The results in this text go back to publication PMC10726135.

The other results are listed elsewhere or left out. At the low end of the ranking the order means little. Measured with an extract: partners may take part in the binding.

The experiment concerns the target T1, HNF4alpha8 (COS-7 nuclear extract) (UniProt P41235-5).
T1 sequence: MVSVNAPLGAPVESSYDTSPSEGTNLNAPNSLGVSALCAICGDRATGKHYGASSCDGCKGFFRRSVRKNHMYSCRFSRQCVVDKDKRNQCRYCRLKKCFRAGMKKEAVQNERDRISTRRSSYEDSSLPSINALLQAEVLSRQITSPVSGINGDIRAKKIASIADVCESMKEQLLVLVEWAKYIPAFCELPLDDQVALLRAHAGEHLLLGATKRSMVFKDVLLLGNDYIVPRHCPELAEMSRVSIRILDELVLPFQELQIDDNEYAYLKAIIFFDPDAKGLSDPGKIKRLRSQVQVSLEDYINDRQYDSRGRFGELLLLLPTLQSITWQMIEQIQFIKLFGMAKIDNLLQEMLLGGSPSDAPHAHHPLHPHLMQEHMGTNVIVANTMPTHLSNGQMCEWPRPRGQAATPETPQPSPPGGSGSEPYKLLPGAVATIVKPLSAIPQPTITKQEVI
Nature of the experiment: protein-binding microarray. The conditions noted are these: COS-7 nuclear extract on double-stranded Agilent 4x180k PBM; binding buffer, salt, pH and temperature not given; high values mean tight binding; double strand, one strand shown; sequences stand for … in …GCCTAGGGAGATTAGAGTATCGGTCGA
Take TGGAGTGCACTGTGATCTTTAGAAAATACT: the binding signal (log2 normalized intensity) was -0.0739.
The same measure for GTCACTCCTTCCTCAAGACCCTTTACTGCC: 1.61.
The same measure for TCTCTGGAGGTCACTGCTGGTGGGTGGGGG: 0.406.
The result for ACCAAAACCAAGATAGTGACGGAGGTGACC reads 1.88; that for ATTTGGAAGTAAGAACCCCACTATTCAGGA, 2.1.
Take ATTCCTGGGAACTGCGGACATAGCTTGCCA: the binding signal (log2 normalized intensity) was -1.3.
For the sequence TCAACAAGACCCTGCCCTTTCCCCCGCCCT, the binding signal (log2 normalized intensity) came to 4.91.
For the sequence CCTCTGCCTTTCAGGCAGGAGACGATGGTT, the binding signal (log2 normalized intensity) is -1.16.
The same measure for GCAAGGAAATAAAAGAGCCTGAGCCACTTC: -1.32.
Consider TTAAAAAGCAAACAAAACACGGACTTTGAA, for which the binding signal (log2 normalized intensity) amounted to 4.97.
In the case of CTGACAGAACTAAGCTGTTGCGTAAGGGTC, the binding signal (log2 normalized intensity) came to 1.93.
The result for GCAAGATCTCACAGATTAAGTCACGTGGAG reads -0.935; that for AATCCCAGGGTCAGAGGTCGCGAGGGAGAG, 3.67.
The result for TCCAAAGAGCTCAACCTGTGAAAATTGGTA reads -1.22; that for CCATTACTTCTGTTTGCATTAGTTATATCT, 0.622.
Take AGGATCACCTGAGTCCAGAGGTCAAGGCTG: the binding signal (log2 normalized intensity) turned out to be 4.56.
The same measure for AGGCCAGGCATACCTTTCTTATCATAAGTA: -0.864.
For the sequence AACGGCAGGGTTGTGCAGGACTGCGTAACT, the binding signal (log2 normalized intensity) was -1.25.
The result for GGGAAAACTTACGCACATTACTTTGATTGG reads -1.19; that for AAGGTCTTAAGTGTCATTAGTAACAAACAC, 0.846; that for CCTCCCACCCCCACGGTGCGCTGCCCCTCA, 5.28.
Consider GGCCGCCCAAGCGAATATGTCAGGCTCAGG, for which the binding signal (log2 normalized intensity) was -1.09.
Turning to ATGAATGCCTTGGCCTCTGCAGACATGGAC, the binding signal (log2 normalized intensity) turned out to be 1.31.
Take CCTTACCATTGCTTTCTTCCAAGGCTGCAA: the binding signal (log2 normalized intensity) was -1.39.
The same measure for GCAGAGCAGGTTCTCAGGCCAATCATATCT: -1.3.
The same measure for GTCTTCCTGGTGACCTTTGTTTGGTCAAAT: 4.87; for CTGACCCCAGCATGTTTGGGTCACAATCAC: 2.53; for GTAGATAAGCAGATCTGGGCAATGTCAACA: -1.19.
The same measure for CACTGCTTTGTTCCCTGGCTCACTGACTCA: -1.3.
TTTCACCTCTGCACCCCACCAAGGACTGGA: the binding signal (log2 normalized intensity) stood at 2.69.
The result for CAATTAGAGCAAAGGTTACTGCAGAGAAGA reads 2.07.
The same measure for CCAGAACGTGGCCTTTAATCAACTGCAGGA: -1.14; for TAACTCAAAATCTGCTCTGTCCTGAGATGT: 0.898.
The same measure for CTGAAACATGCCTATGACCGAGGGTTAAGC: -0.405.
For the sequence GAACTGAGCAGGCCTGGGCTTGCAAAGGTC, the binding signal (log2 normalized intensity) was 3.51.
The result for TGTACAAAGGTCACTTCTGTTCATTGATAA reads 4.79.
The same measure for CCTTTTTTGAAGGTTAAAGTCCATTTTTGA: 7.52; for GGGAGGGTGGGTTATCAGTAAGAGCATCAG: -0.864.
The result for CAGATGGAATGTGTGCCCGTCACCTCTGAA reads -0.151; that for TCCTTCCTCAAGACCCTTTACTGCCATCTG, 0.38.
Turning to AAAGAGACAAAGCTTTGAAGATGCTTTTTG, the binding signal (log2 normalized intensity) is -1.32.
Regarding ATTCCTTCCCAAGTGCTAGCTTGGTCTGAA, the binding signal (log2 normalized intensity) was -0.612.
The result for AAACTGCAGCTGCTGCACTGATAAGAAAGC reads -1.32.
The same measure for ACATGTACAGTATTGCGTAAGTTGTTCCTT: 1.31; for AGCTGCTTCGGCCAGCACAGGAGGCCTCTC: -1.38; for AGGAGCCAATTATGCTGGCAGTAGGGAGGT: -1.48.
The same measure for GAGGAAAAGGAGGAGTTTGACCCCAGGTAG: 5.1; for ACTGATAGGTGCGTGGGGGAGGGGCCAGGA: -1.42.
As to TTCTTAGGGAGATGGATATATGTACAGCTG, the binding signal (log2 normalized intensity) was -0.376.
With GACGCAGAGAAGCACTGCAGTTTAAGTCTG, the binding signal (log2 normalized intensity) was -1.5.
The same measure for GGAAATGATAGCATCCCAGTAGAAAAAAAA: -1.37; for ACTTGAGGTATGATGCATCCTGAGGCAAAA: -1.17.
The same measure for AGTCCCATAACTGACTGTGTCTGTTTACCC: 1.45; for TTTCTCTTTTGACCTTTGGACTTTCACATT: 11.
Regarding ACAAAGAAATGTAACCTTTGGCCAATTGCA, the binding signal (log2 normalized intensity) came out at 5.13.
The result for GCAATTGGTCAAAGGTCACCAGTGAGCCAA reads 5.73; that for GTTTTTTTCACCTGGGGCCTTGGGCCACCT, -0.891; that for TGTTTGCCTCTCAGCTCATTCAAAGTCCAA, 4.2.
The result for TCATGACAAAGAAATGTAACCTTTGGCCAA reads 7.31.
As to CCTGACTCAAGAAAGGATCTCACCCAAACC, the binding signal (log2 normalized intensity) was -1.24.
Regarding AGGTTTCCACTGATAAAGTTCTTTTGTGTG, the binding signal (log2 normalized intensity) was 1.22.
The result for GGCAGAGTTGTTTGCAGAGGGAAAGCGAGA reads -1.22; that for GGAACTGTCCACCAAGGAGGTGCTGACAGG, -1.29; that for TGAGATTTTGCTCAACAAATATTAGCTGTT, -1.46.
Regarding TGTCCATGGTGACCATGTGATGTGAAGAGT, the binding signal (log2 normalized intensity) was -0.253.
As to TTCCTGGCAGCCAGCTGGTTTGCCTCTCTT, the binding signal (log2 normalized intensity) is -1.34.
The result for CTGGCCTTCCTGGCCCTAGCTGGGTTTTTC reads 0.0952; that for GAGTCTGTTGTCTAACATTTTTGACCTTCA, 4.68.
The same measure for GCCCAGTCAAACCCCGCGCTCCAGGCATGG: -1.02; for ATGTGTTAGGCAAGCAAACTGCAAATACAG: -1.31; for GCCCCATAACCACCATTAGACTCTGCCCTC: 4.98.
The result for GCCGGCGCAGCCGCGCTCCGCCCCGTTCCC reads 2.08.
